For 60 molecules, relative growth results are on record in the supplement of paper PMC9446081.

About 220 (0.56%) of roughly 39,000 compounds showed activity. The list shows a part of the results.
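Further: static incubation at 37 °C against the wild-type strain, values averaged over two biological replicates.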

This test has as its system Escherichia coli K-12 BW25113. In words: relative growth (OD600 normalised to plate interquartile mean) (fraction); higher = less growth inhibition, active = 0.2 or less. The settings on record: 50 µM; LB; incubation time: overnight (16-24 h).
Regarding `C=C(NC(=O)C(=C)NC(=O)c1csc(C2=NC3c4csc(n4)C4NC(=O)c5csc(n5)C(C(C)(O)C(C)O)NC(=O)C5CSC(=N5)C(=CC)NC(=O)C(C(C)O)NC(=O)c5csc(n5)C3(CC2)NC(=O)C(C)NC(=O)C(=C)NC(=O)C(C)NC(=O)C(C(C)CC)NC2C=Cc3c(C(C)O)cc(nc3C2O)C(=O)OC4C)n1)C(N)=O` (stereo not given), the relative growth is inactive: 1.13. In the case of `C[C@@H]1CN([C@@H](C)CO)C(=O)c2cc(NC(=O)Nc3cccc4ccccc34)ccc2O[C@H]1CN(C)S(=O)(=O)c1ccccc1`, the relative growth was inactive: 1.03. Under `CCCNC(=O)N(C)C[C@@H]1Oc2cc(-c3ccccc3F)ccc2S(=O)(=O)N([C@@H](C)CO)C[C@@H]1C` stands inactive: 0.987; under `CN[C@H](CC(=O)O)C(=O)O`, inactive: 1.02; under `C[C@H]1CN([C@@H](C)CO)C(=O)Cc2cc(NC(=O)CCCCCC(=O)Nc3ccccc3N)ccc2O[C@@H]1CN(C)Cc1ccc(-c2ccccc2)cc1`, inactive: 1. Regarding `COc1ccc(NC(=O)Nc2ccc3c(c2)C(=O)N([C@@H](C)CO)C[C@H](C)[C@H](CN(C)C(=O)Nc2ccccc2)OCCCC[C@@H](C)O3)cc1`, the relative growth is inactive: 1.01. To `CC(C)NC(=O)Nc1ccc2c(c1)C(=O)N([C@H](C)CO)C[C@H](C)[C@@H](CN(C)C(=O)Nc1cccc3ccccc13)OCCCC[C@@H](C)O2` belongs inactive: 1; to `C[C@H](CO)N1C[C@H](C)[C@H](CN(C)C(=O)NC2CCCCC2)OCCCC[C@H](C)Oc2ccc(NC(=O)Nc3ccc4c(c3)OCO4)cc2C1=O`, inactive: 1.02; to `C[C@H](CO)N1C[C@H](C)[C@H](CN(C)CC2CC2)OCCCC[C@H](C)Oc2ccc(NC(=O)C3CCCCC3)cc2C1=O`, inactive: 0.938. Under `C[C@H]1CN([C@@H](C)CO)C(=O)Cc2cc(NS(=O)(=O)c3ccc(F)cc3)ccc2O[C@@H]1CN(C)S(C)(=O)=O` stands inactive: 0.927; under `C[C@@H]1CN([C@H](C)CO)C(=O)c2cc(-c3cccc(C(=O)N(C)C)c3)cnc2O[C@@H]1CN(C)S(=O)(=O)c1ccccc1`, inactive: 0.987; under `NCc1cnc2ccccc2c1`, inactive: 1.01.

Turning to `C[C@@H]1CN([C@@H](C)CO)C(=O)c2cc(NC(=O)Nc3ccc(C(F)(F)F)cc3)ccc2O[C@@H](C)CCCCO[C@@H]1CN(C)Cc1ccccc1`, the relative growth was inactive: 1.02. Take `CC(C)CNC(=O)[C@@H]1c2ccccc2C(=O)N(Cc2ccccc2C(F)(F)F)[C@H]1c1ccc(CO)cc1`: the relative growth was inactive: 0.984.

In the case of `C[C@H]1CN([C@@H](C)CO)C(=O)c2cccc(NS(=O)(=O)c3ccc(Cl)cc3)c2O[C@H]1CN(C)Cc1ccc(Oc2ccccc2)cc1`, the relative growth was inactive: 0.961. To `COc1cc(C=CC(=O)C=C(O)C=Cc2ccc(O)c(OC)c2)ccc1O` belongs inactive: 1.1; to `Cc1cc(C(=O)Nc2cccc3c2O[C@@H](CN(C)C(=O)Nc2ccc4c(c2)OCO4)[C@@H](C)CN([C@H](C)CO)C3=O)n(C)n1`, inactive: 0.994. On to `C[C@@H]1CN([C@H](C)CO)C(=O)c2cc(NC(=O)Nc3ccccc3)ccc2O[C@@H](C)CCCCO[C@H]1CN(C)C(=O)NC1CCCCC1`, for which the relative growth is inactive: 0.939. Under `CO[C@@H](CN(C)S(=O)(=O)c1cn(C)cn1)[C@@H](C)CN(C(=O)Nc1ccc(C(F)(F)F)cc1)[C@@H](C)CO` stands inactive: 0.87; under `CN1CCN(C(=O)C[C@H]2CC[C@H]3[C@@H](COC[C@H](O)CN3S(=O)(=O)c3cccc(Cl)c3)O2)CC1`, inactive: 1.02; under `C[C@H]1CNC(=O)O1`, inactive: 1.01. To `Cc1ccc(S(=O)(=O)Nc2ccc3c(c2)C(=O)N([C@H](C)CO)C[C@H](C)[C@H](CN(C)C(=O)Cc2ccccc2)OCCCC[C@@H](C)O3)cc1` belongs inactive: 1; to `O=C(C[C@H]1CC[C@@H]2[C@H](COC[C@@H](O)CN2S(=O)(=O)c2ccc(F)cc2)O1)NCc1ccc(Cl)c(Cl)c1`, inactive: 1.01. `COC(CNC(=O)C(=O)NC[C@H]1OCCN1C(=O)c1ccc2c(c1)OCO2)OC`: the relative growth is inactive: 1.02. Under `C[C@@H]1CN([C@H](C)CO)C(=O)c2cc(NC(=O)NC3CCCCC3)ccc2O[C@@H](C)CCCCO[C@@H]1CN(C)C(=O)CCC(F)(F)F` stands inactive: 0.979; under `C[C@@H]1CCCCO[C@@H](CN(C)C(=O)Nc2ccc(F)cc2)[C@H](C)CN([C@H](C)CO)C(=O)c2cc(NC(=O)CCC(F)(F)F)ccc2O1`, inactive: 1.02; under `C[C@H]1CN([C@@H](C)CO)C(=O)Cc2cc(NC(=O)Nc3ccc(C(F)(F)F)cc3)ccc2O[C@@H]1CN(C)Cc1ccc2c(c1)OCO2`, inactive: 0.959. Under `COc1ccc(CN(C)C[C@H]2OCCCC[C@H](C)Oc3ccc(NC(=O)Nc4ccc(OC)cc4)cc3C(=O)N([C@@H](C)CO)C[C@H]2C)cc1` stands inactive: 0.901. To `Cc1noc(C)c1S(=O)(=O)N(C)C[C@@H]1Oc2ccc(NC(=O)Nc3ccccc3)cc2CC(=O)N([C@@H](C)CO)C[C@H]1C` belongs inactive: 0.936; to `Cc1noc(C)c1NC(=O)Nc1ccc2c(c1)CC(=O)N([C@H](C)CO)C[C@H](C)[C@@H](CN(C)C(=O)Nc1cccc3ccccc13)O2`, inactive: 1.05. As for `NS(=O)(=O)c1cc2c(cc1Cl)NC(C(Cl)Cl)NS2(=O)=O` (stereo not given), the relative growth was inactive: 1.01. To `NC(=S)NCCC[C@H](N)C(=O)O` belongs inactive: 1.01; to `COc1ccc(S(=O)(=O)N(C)C[C@@H]2Oc3ccc(NS(=O)(=O)c4cccs4)cc3C(=O)N([C@H](C)CO)C[C@H]2C)cc1`, inactive: 0.992. Under `C[C@@H]1CCCCO[C@H](CN(C)Cc2ccc3c(c2)OCO3)[C@H](C)CN([C@H](C)CO)C(=O)c2cc(NC(=O)CCC(F)(F)F)ccc2O1` stands inactive: 0.996. Take `C[C@@H]1CCCCO[C@@H](CN(C)S(=O)(=O)c2cn(C)cn2)[C@H](C)CN([C@@H](C)CO)C(=O)c2cc(NS(C)(=O)=O)ccc2O1`: the relative growth was inactive: 0.992. For `Cc1ccc(S(=O)(=O)N(C)C[C@H]2Oc3ncc(C#CC4(O)CCCC4)cc3C(=O)N([C@H](C)CO)C[C@@H]2C)cc1`, the relative growth is inactive: 1.02. To `CON=C(C(=O)N[C@@H]1C(=O)N2C(C(=O)OCOC(=O)C(C)(C)C)=C(C=Cc3scnc3C)CS[C@H]12)c1csc(N)n1` belongs active: 0.0386.

Regarding `CCCCCCCCCCCCCCCCCCCCCCO`, the relative growth is inactive: 0.979. To `C[C@@H]1CCCCO[C@H](CN(C)C(=O)Nc2cccc3ccccc23)[C@H](C)CN([C@@H](C)CO)C(=O)c2cc(NS(=O)(=O)c3cn(C)cn3)ccc2O1` belongs inactive: 0.994; to `NCCc1cnc[nH]1`, inactive: 1.02. Regarding `O=C(NCCN1CCOCC1)C(=O)Nc1cc2c3c(c1)CCN3C(=O)CC2`, the relative growth is inactive: 0.958.

As for `C[C@@H]1CN([C@H](C)CO)C(=O)Cc2cc(NC(=O)Nc3cccc4ccccc34)ccc2O[C@@H]1CN(C)C(=O)Nc1ccc(F)cc1`, the relative growth is inactive: 1.03.

In the case of `CC(C)CC#Cc1cnc2c(c1)C(=O)N([C@H](C)CO)C[C@@H](C)[C@H](CN(C)S(=O)(=O)c1ccccc1)O2`, the relative growth is inactive: 1.03. Regarding `Nc1cc(F)ccc1CO`, the relative growth is inactive: 0.992. Under `C=CCN1C(=O)[C@@]2(O[C@@H](CCO)[C@H]([Si](C)(C)c3ccc(OC)cc3)[C@H]2C)c2cc(N(C=O)c3ccccc3)ccc21` stands inactive: 0.992. Regarding `Cc1noc(C)c1NC(=O)N(C)C[C@@H]1Oc2c(NC(=O)Nc3ccc(C(F)(F)F)cc3)cccc2C(=O)N([C@H](C)CO)C[C@H]1C`, the relative growth was inactive: 0.993. Turning to `COc1ccc(S(=O)(=O)N(C)C[C@@H]2Oc3ncc(Br)cc3C(=O)N([C@H](C)CO)C[C@@H]2C)cc1`, the relative growth is inactive: 0.98.

Turning to `Cc1noc(C)c1S(=O)(=O)Nc1ccc2c(c1)CC(=O)N([C@@H](C)CO)C[C@@H](C)[C@H](CN(C)C(=O)Nc1ccccc1)O2`, the relative growth was inactive: 0.992. Take `CCO/N=[N+](\[O-])N1CCCC1`: the relative growth was inactive: 1.01. Under `C[C@@H]1CN([C@H](C)CO)S(=O)(=O)c2ccc(C#CCN(C)C)cc2O[C@H]1CN(C)Cc1ccncc1` stands inactive: 0.959; under `C[C@@H]1CN([C@@H](C)CO)C(=O)c2cc(NS(=O)(=O)c3ccccc3)ccc2O[C@@H]1CN(C)S(C)(=O)=O`, inactive: 0.946; under `Cc1noc(C)c1S(=O)(=O)Nc1ccc2c(c1)CC(=O)N([C@@H](C)CO)C[C@H](C)[C@H](CN(C)C(=O)NC(C)C)O2`, inactive: 0.984.

As to `CC(=O)NC(Cc1ccccc1)C(=O)O` (stereo not given), the relative growth was inactive: 0.859. Under `Cc1noc(C)c1NC(=O)Nc1ccc2c(c1)C(=O)N([C@@H](C)CO)C[C@@H](C)[C@H](CN(C)C(=O)Nc1ccc3c(c1)OCO3)OCCCC[C@@H](C)O2` stands inactive: 0.994; under `COCC#Cc1cnc2c(c1)C(=O)N([C@H](C)CO)C[C@H](C)[C@@H](CN(C)C(=O)Nc1ccc(OC)cc1)O2`, inactive: 1.01.

As for `COc1ccc(NC(=O)N(C)C[C@@H]2Oc3ccc(NC(=O)CCN4CCOCC4)cc3C(=O)N([C@@H](C)CO)C[C@H]2C)cc1`, the relative growth is inactive: 0.974. To `COc1ccc(O)cc1` belongs inactive: 1; to `Cc1ccc(S(=O)(=O)Nc2ccc3c(c2)C(=O)N([C@H](C)CO)C[C@H](C)[C@@H](CN(C)S(=O)(=O)c2ccc(C)cc2)OCCCC[C@@H](C)O3)cc1`, inactive: 0.988. To `COc1ccc(S(=O)(=O)N(C)C[C@@H]2OCCCC[C@@H](C)Oc3ccc(NC(=O)Nc4ccc(C(F)(F)F)cc4)cc3C(=O)N([C@H](C)CO)C[C@@H]2C)cc1` belongs inactive: 1.02; to `COc1ccc(NC(=O)N(C)C[C@@H]2Oc3ccc(NC(=O)CCCCCC(=O)Nc4ccccc4N)cc3C(=O)N([C@H](C)CO)C[C@@H]2C)cc1`, inactive: 0.901.
